In PubChem BioAssay (Tox21):
Inconclusive means that the source gave no clear call. Such entries were picked first, then a sample of the others. No potency is given beside an inconclusive call; the fits are too rough. Active and inactive are the calls of the source. Unless noted, the call rests on the fitted dose curve; in most records, active means well fitted curve in the direction sought with a large enough effect in the repeat runs; inconclusive means weak or mixed curves; inactive means no such curve, though single readings can be large; an effect the other way counts as inactive or inconclusive.

How the values were obtained:
[1] = target: Progesterone receptor (Homo sapiens) (UniProt P06401); test: qHTS assay to identify small molecule antagonists of the progesterone receptor (PR) signaling pathway (AID 1346795; active means well fitted inhibition curve with a large enough effect in the signal ratio in the repeat runs, not every such curve was filed as active; inconclusive means weak or mixed curves; the % refers to the signal ratio; on activity change, negative = inhibition: on the % scale 0 is the no-effect control and ±100 the full control effect); settings: PR-UAS-bla HEK293T, beta-lactamase FRET ratio, 16 h; activity change, negative = inhibition: at 92.4 µM (top of the series) unless noted
Procedure, shortened: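 Beta-lactamase reporter, HEK293T PR-UAS-bla line; 2% charcoal-stripped FBS; 6 hr pre-incubation, 37C/5% CO2. Compound + R5020 1 nM final, 16 hr. LiveBLAzer B/G FRET substrate, 2 hr RT; fluorescence intensity read.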

[2] = qHTS assay to identify small molecule antagonists of the progesterone receptor (PR) signaling pathway - cell viability counter screen (AID 1346798); further: nearly all actives have a fitted effect of over 50% in size
Procedure, shortened: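 Luminescence readout (CellTiter-Glo, 30 min, RT) of viability in PR-UAS-bla HEK293T cells exposed to compound and R5020 agonist for 16 hr at 37C, 5% CO2; run in the same wells as the beta-lactamase reporter read.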

[3] = qHTS assay to identify small molecule agonists of the progesterone receptor (PR) signaling pathway - cell viability counter screen (AID 1346799; calls by dose curve; further: nearly all actives have a fitted effect of over 45% in size)
Procedure, shortened: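 HEK293T PR-UAS-bla, 3,000 cells/well, 2% charcoal-stripped FBS; 6 h settle, compound 16 h at 37C/5% CO2; LiveBLAzer 2 h RT, then CellTiter-Glo 30 min RT, luminescence read.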

[4] = Caspase-3/7 induction in CHO-K1 cells by small molecules, qHTS cell viability counter screen (AID 1346979); further: nearly all actives have a fitted effect of over 35% in size
Procedure, shortened: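 CHO-K1 wt, 1,500 cells/well; 5hr pre-incubation 37C/5% CO2; compound pin transfer (DMSO); 16hr exposure; CellTiter-Fluor added, 1hr, fluorescence read.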

[5] = qHTS assay to identify small molecule agonists of the TGF-beta/Smad signaling pathway - cell viability counter screen (AID 1346829); further: nearly all actives have a fitted effect of over 45% in size
Procedure, shortened: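 SBE-bla HEK 293T cells plated overnight, compound exposure 5 hr at 37 C. Viability read in the same wells by CellTiter-Glo luminescence after 30 min at room temperature, following the beta-lactamase read.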

[6] = Human pregnane X receptor (PXR) small molecule agonists, qHTS cell viability counter screen (AID 1346977); further: nearly all actives have a fitted effect of over 50% in size
Procedure, shortened: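 Fluorescence read-out (CellTiter-Fluor) of viability in PXR-Luc HepG2 cells, multiplexed with the luciferase agonist read. Compounds in DMSO added after 5hr plating; 24hr total exposure at 37C, 5% CO2.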

[7] = qHTS assay to identify small molecule agonists of the TGF-beta/Smad signaling pathway (AID 1346859; active means well fitted activation curve with a large enough effect in the signal ratio in the repeat runs, not every such curve was filed as active; inconclusive means weak or mixed curves; the % refers to the signal ratio; on activation: on the % scale 0 is the no-effect control and ±100 the full control effect); settings: SBE-bla HEK293T, TGF-beta/Smad beta-lactamase reporter, 5 h; activation: at 76.8 µM (top of the series)
Procedure, shortened: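 Read-out: fluorescence at 460 and 530 nm (405 nm excitation) after a 2 hr room-temperature incubation with beta-lactamase FRET substrate. SBE-bla HEK 293T cells had been treated with test compounds for 5 hr at 37 C.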

[8] = Caspase-3/7 induction in CHO-K1 cells by small molecules, qHTS assay (AID 1346980); further: nearly all actives have a fitted effect of over 15% in size
Procedure, shortened: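 Luminescent Caspase-Glo 3/7 read (30min, room temperature) quantified apoptosis induction. Cells were wild-type CHO-K1, treated with compound for 17hr at 37 C and 5% CO2.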

[9] = qHTS assay to identify small molecule antagonists of the TGF-beta/Smad signaling pathway (AID 1346924; active means well fitted inhibition curve with a large enough effect in the signal ratio in the repeat runs, not every such curve was filed as active; inconclusive means weak or mixed curves; the % refers to the signal ratio); settings: SBE-bla HEK293T, TGF-beta/Smad reporter, beta-lactamase ratio; activity, negative = inhibition: at 76.8 µM (top of the series) unless noted
Procedure, shortened: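 SBE-bla HEK 293T cells were plated overnight, then received compound in DMSO plus TGF-beta1 (added as a 0.25 ng/mL solution) and were incubated 5 h at 37 C. Beta-lactamase reporter activity was read after 2 h at room temperature with LiveBLAzer B/G FRET substrate (ex 405, em 460/530 nm).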
Potency means the concentration at half of the fitted maximal effect; tags describe the fitted curve by direction and shape or compound fluorescence and quenching.

Chain of UniProt P06401 (P06401 whole entry, looked up): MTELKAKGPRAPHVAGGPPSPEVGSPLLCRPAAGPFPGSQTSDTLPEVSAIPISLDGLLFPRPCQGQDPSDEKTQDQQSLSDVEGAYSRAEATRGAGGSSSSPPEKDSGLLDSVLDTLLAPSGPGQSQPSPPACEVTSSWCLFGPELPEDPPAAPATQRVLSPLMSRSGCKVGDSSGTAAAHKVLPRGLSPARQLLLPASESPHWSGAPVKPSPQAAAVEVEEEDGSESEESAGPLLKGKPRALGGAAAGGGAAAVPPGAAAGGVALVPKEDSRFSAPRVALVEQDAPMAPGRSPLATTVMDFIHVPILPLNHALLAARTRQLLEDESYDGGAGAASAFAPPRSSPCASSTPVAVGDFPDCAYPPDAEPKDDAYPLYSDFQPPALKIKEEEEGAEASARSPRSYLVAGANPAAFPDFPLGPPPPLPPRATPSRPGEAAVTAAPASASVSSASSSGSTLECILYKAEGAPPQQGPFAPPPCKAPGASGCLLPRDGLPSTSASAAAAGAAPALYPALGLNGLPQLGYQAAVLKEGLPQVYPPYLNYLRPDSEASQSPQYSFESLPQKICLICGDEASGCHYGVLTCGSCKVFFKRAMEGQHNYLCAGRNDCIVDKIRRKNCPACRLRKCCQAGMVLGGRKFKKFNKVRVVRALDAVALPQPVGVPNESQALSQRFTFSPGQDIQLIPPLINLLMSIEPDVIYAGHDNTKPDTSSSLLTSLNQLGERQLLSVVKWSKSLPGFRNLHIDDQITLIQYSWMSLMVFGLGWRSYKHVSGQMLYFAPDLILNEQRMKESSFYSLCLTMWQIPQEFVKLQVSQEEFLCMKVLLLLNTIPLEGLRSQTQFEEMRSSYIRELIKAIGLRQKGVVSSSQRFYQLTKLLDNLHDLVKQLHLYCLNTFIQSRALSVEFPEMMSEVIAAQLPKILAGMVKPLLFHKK

COCC(C)N(C(=O)CCl)c1c(C)csc1C (centres undefined)
Potency [1]: active: 54.5 µM
Potency [2]: inconclusive [cytotoxic, partial curve, poor fit]
Potency [3]: inconclusive [rising, single point]

CC(C)CCCCCCCOP(=O)(Oc1ccccc1)Oc1ccccc1
Potency [1]: active: 24.5 µM
Potency [2]: inconclusive [rising, single point]
Potency [4]: inconclusive [cytotoxic, single point]

CC(C)C(Nc1ccc(C(F)(F)F)cc1Cl)C(=O)OC(C#N)c1cccc(Oc2ccccc2)c1 (centres undefined)
Potency [1]: inconclusive [falling, partial curve]
Potency [2]: inactive
Potency [3]: inconclusive [rising, partial curve]
Potency [5]: inconclusive [cytotoxic, partial curve, poor fit]
Potency [6]: inactive

CC1(C)C(/C=C(\Cl)C(F)(F)F)C1C(=O)OC(C#N)c1cccc(Oc2ccccc2)c1 (centres undefined)
Potency [1]: inconclusive
Potency [3]: inconclusive [rising, partial curve, poor fit]
Potency [7]: inactive
Potency [6]: inconclusive [rising, full curve, poor fit]

O=S1OC[C@@H]2[C@H](CO1)[C@]1(Cl)C(Cl)=C(Cl)[C@@]2(Cl)C1(Cl)Cl (some centres undefined)
Potency [1]: active: 30.6 µM
Potency [7]: inactive
Potency [6]: inconclusive [cytotoxic, single point]
Potency [4]: inconclusive [cytotoxic, single point]
Potency [8]: inconclusive [activator, partial curve, poor fit]

c1ccc(-c2ccccc2)cc1
Potency [1]: inconclusive
activity change, negative = inhibition [1]: inconclusive: 4.87%
Potency [2]: inconclusive [rising, single point]
Potency [3]: inconclusive [cytotoxic, full curve, poor fit]
activity, negative = inhibition [9]: inconclusive: -0.777%

Oc1ccc(Cc2ccc(O)cc2)cc1
Potency [1]: inconclusive [falling, partial curve]
Potency [3]: inconclusive [rising, partial curve, poor fit]

FC(Cl)(Cl)C(F)(Cl)Cl
activity change, negative = inhibition [1]: inconclusive: 6.98%
Potency [2]: inactive
Potency [4]: inactive

Cc1cc(SCc2sc(-c3ccc(C(F)(F)F)c(F)c3)nc2C)ccc1OCC(=O)O
Potency [1]: active: 17.2 µM
Potency [2]: active: 19.3 µM
Potency [3]: active: 8.63 µM
Potency [7]: inconclusive [rising, full curve]
Potency [9]: inconclusive [fluorescent]
Potency [6]: inconclusive [cytotoxic, single point]

O=C/C=C/c1ccccc1
Potency [6]: inconclusive [rising, partial curve]
Potency [4]: inconclusive [rising, partial curve]

N#CN=C1SCCN1Cc1ccc(Cl)nc1
Potency [3]: inconclusive [cytotoxic, single point]
